Laboratory results from the BET-seq Pho4 binding data (Le et al. 2018).
This is one part of the list. The energies were worked out here from pooled read counts, against the library average; single values are noisy.

Molecular target: T1, Pho4 (S. cerevisiae) (UniProt P07270)
T1 sequence: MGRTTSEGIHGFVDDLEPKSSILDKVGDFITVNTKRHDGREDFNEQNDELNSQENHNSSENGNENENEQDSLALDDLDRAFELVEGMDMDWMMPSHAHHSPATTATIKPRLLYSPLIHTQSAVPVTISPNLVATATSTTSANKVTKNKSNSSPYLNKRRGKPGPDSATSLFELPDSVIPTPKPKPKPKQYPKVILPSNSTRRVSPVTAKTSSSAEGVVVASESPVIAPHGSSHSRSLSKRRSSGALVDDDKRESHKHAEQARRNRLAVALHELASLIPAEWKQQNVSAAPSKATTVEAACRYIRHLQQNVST
Assay: relative binding free energy (BET-seq); higher = weaker binding
Settings: reference: library average

Sequence | relative binding free energy
TGTGACACGTGCGTAT | -0.2 kcal/mol
GGCATCACGTGGGTTG | 0.03 kcal/mol
AATTTCACGTGTCGGC | 0.32 kcal/mol
TGGGTCACGTGTGTGC | 0.18 kcal/mol
GCTAGCACGTGTGGTG | -0.15 kcal/mol
TAAATCACGTGGAGGG | 0.14 kcal/mol
ACTGCCACGTGGTGTG | -0.01 kcal/mol
TGATACACGTGGTTTG | -0.03 kcal/mol
AATTACACGTGGGGCT | -0.05 kcal/mol
AAGATCACGTGCTGGT | 0.05 kcal/mol
AGTGGCACGTGTAAGA | 0.02 kcal/mol
AGGCACACGTGTTAGT | -0.01 kcal/mol
GTGCTCACGTGACGGG | 0.56 kcal/mol
TCTTTCACGTGAGTTG | 0.43 kcal/mol
CGGGTCACGTGTTAGA | 0.06 kcal/mol
GTGTACACGTGAGACT | 0.44 kcal/mol
ATGAACACGTGGTATA | -0.06 kcal/mol
TTTGCCACGTGCTTGG | -0.11 kcal/mol
GGTTTCACGTGTCAGC | 0.27 kcal/mol
GTAGCCACGTGTAGTA | 0.16 kcal/mol
ATATTCACGTGGAGGC | 0.22 kcal/mol
CTTGACACGTGGATTT | 0 kcal/mol
GCGCGCACGTGGGTGG | -0.37 kcal/mol
TTTGGCACGTGAAAGA | 0.29 kcal/mol
GTTTTCACGTGTCGGC | 0.33 kcal/mol

Sequence | relative binding free energy
GGGTTCACGTGAGGTC | 0.56 kcal/mol
ATGGGCACGTGTCGAT | -0.2 kcal/mol
TTGGTCACGTGATCAG | 0.3 kcal/mol
CTCTGCACGTGGGGTG | -0.38 kcal/mol
GGTCACACGTGATGGG | 0.22 kcal/mol
TGGGACACGTGCTGTG | 0 kcal/mol
AGTGGCACGTGTTTTG | 0 kcal/mol
TTTATCACGTGGAGCA | 0.09 kcal/mol
GTGTGCACGTGGTGTT | -0.1 kcal/mol
AACGTCACGTGTGGTT | 0.22 kcal/mol
ACTGACACGTGGTGTT | -0.1 kcal/mol
GCTGGCACGTGGGGTA | -0.3 kcal/mol
GGTGACACGTGGATAT | -0.09 kcal/mol
AGAAGCACGTGGTGTC | -0.18 kcal/mol
CGAGACACGTGGTTTT | 0.01 kcal/mol
TAGCACACGTGGTTTG | 0.09 kcal/mol
CTGGCCACGTGGTGGT | -0.28 kcal/mol
AATGCCACGTGGGTGG | -0.16 kcal/mol
GTTGACACGTGAAAGG | 0.09 kcal/mol
CTAGCCACGTGGGTGG | -0.26 kcal/mol
TTGTGCACGTGGCATA | -0.12 kcal/mol
ATCGACACGTGTAGTG | 0.02 kcal/mol
TGAATCACGTGGTAAA | 0.17 kcal/mol
TAGCTCACGTGTTAAT | 0.17 kcal/mol
TAAGGCACGTGCTGTT | -0.11 kcal/mol

Sequence | relative binding free energy
GAGGACACGTGGGTGG | -0.1 kcal/mol
GGGTGCACGTGTAGAT | 0.28 kcal/mol
TGTGGCACGTGGAAAA | 0.08 kcal/mol
TGTAACACGTGATTAG | -0.01 kcal/mol
AGGTGCACGTGTGATA | 0.05 kcal/mol
AGAAACACGTGGTATG | 0.04 kcal/mol
AGTATCACGTGGATAT | 0.16 kcal/mol
TATATCACGTGTGGGT | 0.28 kcal/mol
ATGTCCACGTGTTTTG | -0.05 kcal/mol
AGTATCACGTGGGTGT | -0.03 kcal/mol
TATATCACGTGCTGGT | 0.05 kcal/mol
TGTTACACGTGCTTTT | 0.11 kcal/mol
GAGTGCACGTGAATGT | 0.28 kcal/mol
ATGAGCACGTGCTAGT | -0.21 kcal/mol
TTATGCACGTGTATAA | -0.11 kcal/mol
TTGTGCACGTGAGACG | 0.1 kcal/mol
CTTTACACGTGGTTTA | -0.03 kcal/mol
GATTGCACGTGGTATT | 0.11 kcal/mol
TGTGTCACGTGAATTC | 0.2 kcal/mol
AGGTTCACGTGGGCCA | 0.13 kcal/mol
GTTGTCACGTGTGTCT | 0.28 kcal/mol
GGTAACACGTGTGTTA | -0.08 kcal/mol
ACGGTCACGTGTGGGC | 0.13 kcal/mol
CTATGCACGTGTGGAT | 0 kcal/mol
TGATTCACGTGAGATG | 0.51 kcal/mol

Sequence | relative binding free energy
GAAGGCACGTGTTAGA | 0.05 kcal/mol
CATTTCACGTGGGGGC | 0.19 kcal/mol
GCGGGCACGTGCTAGG | -0.26 kcal/mol
TCGCGCACGTGTTAGT | -0.03 kcal/mol
GCATGCACGTGTTTTT | 0.1 kcal/mol
GAGGGCACGTGTGCTT | -0.03 kcal/mol
AAAGGCACGTGCTGTT | -0.16 kcal/mol
TTGTACACGTGTAGTC | 0.13 kcal/mol
TAGGGCACGTGGGCTC | -0.26 kcal/mol
TGGTGCACGTGTTGAT | 0.03 kcal/mol
GGTTGCACGTGTAGAA | 0.02 kcal/mol
GATTTCACGTGGTTGT | 0.42 kcal/mol
CTTAGCACGTGTTTAG | -0.13 kcal/mol
CGGTTCACGTGTGTTC | 0.35 kcal/mol
CGTTACACGTGGTTGA | 0.07 kcal/mol
GTCGTCACGTGGTAAT | 0.08 kcal/mol
TATGGCACGTGAAGGT | 0.17 kcal/mol
ACTATCACGTGTAGGG | 0.22 kcal/mol
TACTTCACGTGTCGGG | 0.37 kcal/mol
GGGAGCACGTGTAGAG | -0.1 kcal/mol
TCGGTCACGTGGCGCG | 0.1 kcal/mol
AGTGACACGTGGATGA | -0.08 kcal/mol
ATAGGCACGTGTGATT | 0.07 kcal/mol
GTCGGCACGTGTTTAA | 0.02 kcal/mol
TGTAACACGTGAGAGT | 0.29 kcal/mol

Sequence | relative binding free energy
ATGGGCACGTGGAAGG | -0.06 kcal/mol
GGGGTCACGTGGTCCG | -0.04 kcal/mol
GGTGACACGTGCGCGT | -0.07 kcal/mol
TTAGGCACGTGTGGTT | 0.01 kcal/mol
ATGTTCACGTGGACGT | 0.19 kcal/mol
TAGCGCACGTGATTTT | 0.05 kcal/mol
GTTGCCACGTGTATAT | -0.02 kcal/mol
GTCATCACGTGGGTCT | 0 kcal/mol
TATGGCACGTGTGTGG | -0.06 kcal/mol
GGGATCACGTGAGATT | 0.33 kcal/mol
TTTGGCACGTGTCGGT | 0.06 kcal/mol
TTTGACACGTGCGTAA | 0.02 kcal/mol
AAGGTCACGTGTCTGT | 0.14 kcal/mol
CTTCGCACGTGGTTTT | -0.05 kcal/mol
TGTGTCACGTGTCTTG | 0.07 kcal/mol
TATAGCACGTGGTCGT | -0.29 kcal/mol
TAGGGCACGTGCTGTC | -0.08 kcal/mol
CGTGCCACGTGTGGTT | -0.1 kcal/mol
GGCTTCACGTGTTGGA | 0.39 kcal/mol
GCTAACACGTGGGGAT | 0.12 kcal/mol
GGTGTCACGTGGTGAG | 0.13 kcal/mol
GGAGTCACGTGGTATC | 0.11 kcal/mol
GCCGGCACGTGTGTGG | 0.06 kcal/mol
TTAGTCACGTGAGCAG | 0.27 kcal/mol
AAGAGCACGTGCGGTA | -0.12 kcal/mol

Sequence | relative binding free energy
TCATTCACGTGTGGAG | 0.3 kcal/mol
TGCTGCACGTGGGAAG | -0.2 kcal/mol
ATTGACACGTGTGGGT | 0.06 kcal/mol
TAGAACACGTGATGGG | 0.13 kcal/mol
CTTGACACGTGTAGTA | 0.11 kcal/mol
GGGTGCACGTGCGGAA | -0.06 kcal/mol
TGTGGCACGTGGATAC | -0.1 kcal/mol
TGTGGCACGTGTCAGG | -0.09 kcal/mol
CTTGGCACGTGAAATG | 0.04 kcal/mol
TTTGTCACGTGAGCGC | 0.21 kcal/mol
AGATACACGTGGTCGG | -0.03 kcal/mol
CGTTCCACGTGGGGTG | -0.2 kcal/mol
GTTAGCACGTGGCGCT | -0.11 kcal/mol
TGGTACACGTGTGGAG | 0.18 kcal/mol
TATTACACGTGTGTTC | 0.1 kcal/mol
TGGGGCACGTGTGACA | -0.18 kcal/mol
GATATCACGTGGGCTG | 0.1 kcal/mol
AGGAGCACGTGGTCAG | -0.23 kcal/mol
CGGTGCACGTGTTAAA | 0.02 kcal/mol
TACTACACGTGGGGCG | 0.12 kcal/mol
CGGTACACGTGGGTGC | -0.12 kcal/mol
